Measurements taken from the supplement of paper PMC11417369.
± gives the standard deviation of the averaged measurements. This is one part of the list.

System: PfAP2-G AP2 domain (GST-tagged)
Assay: gcPBM binding intensity (ln(normalized median fluorescence intensity)); higher = stronger DNA binding
Summary of the method: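 After 1 h on an Agilent 4 × 180k array of primer-extended double-stranded 36-bp intergenic genomic probes and negative controls, bound GST-tagged P. falciparum DNA-binding domains were detected with Alexa488 anti-GST antibody and scanned at 488 nm. The domains had been expressed in E. coli, and binding took place in 1× PBS with 1% milk, 0.2 mg/ml BSA, 0.5% salmon testes DNA and 0.03% Triton X-100. Binding intensity is the highest Masliner-normalised natural-log median intensity across replicate spots of either probe orientation.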

Sequence	gcPBM binding intensity (ln)
TATACAGACAGACACACACACATATATAAATATGTA [CACACA_site6912]	10.2 ± 0.37
ATTATTATTTTTAACTGTACATAGATATAGATATCC [XGTACX_site8714]	10.8 ± 0.54
TACAATATTTCGAGCTTGCACTTTTATTAAGTAAAT	10.06 ± 0.085
TATCTGTATTTGTATACACACAAATGTATTTATTTA [CACACA_site4830]	10.09 ± 0.092
TGTATGTTATATACAACACACAAAAAAAAACAAGTT [CACACA_site301]	10 ± 0.057
AACTTTTATACGGATACACACAAAAAAAAATAAAAA [CACACA_site6547]	10.5 ± 0.45
TAAGAAAAATATATATGTACACATATATATATATAT [XGTACX_site8542]	11.4 ± 0.89
TATATTTAACATACTTTTTTTTTTTTTTTTTTTTTT [CACACA_negctrl_site938]	10.9 ± 0.45
ATGTGTATACTAAGAACACACAAGTTACTTGGTGTT [CACACA_site6864]	9.91 ± 0.085
TATTTAAAAGATGAAAGTACACATTTAATTACATTT [XGTACX_site3781]	11.3 ± 0.92
TAATTAGCATAATACACATGCATACATTTATATATA [TGCATGCA_site542]	9.75 ± 0.099
TACATATATCTATGTGTGCACTTATTTCCGGACAAA	11 ± 0.6
AAAAAAAAAAAACATACACACAAGAACAAAATATGA [CACACA_site3002]	9.865 ± 0.092
AGTCTTTTACATTGCACACACATTTCTTTCCTTTTG [CACACA_site2988]	10.3 ± 0.049
AATAAATTCATGAATTGTACGTAATGATAACATGAA [XGTACX_site2591]	11.3 ± 0.75
TTTTTATTCCAGTATTCACACACGAATAACCACATA [CACACA_site1897]	10.3 ± 0.31
ATTTTCTTTTTTAAACGTACACATATTAAATATATA [XGTACX_site7773]	11.5 ± 1
ATATATATGTTTTTATGTACATATTTTTCTCCTTCA [XGTACX_site5899]	11.3 ± 0.69
TTTGGAAAGCGTGATTTTTGACAAACACAAAAAAAA [CACACA_negctrl_site651]	10.1 ± 0.13
TTATAACTTTTCACAAGTACATATATATATGTATAA [XGTACX_site2306]	11.2 ± 0.79
ATTATTTTATGAGACATAAAAAAAAAAAAAAAAAAA [CACACA_negctrl_site1067]	9.73 ± 0.51
AGATGAGAGATATATACACACAATAATACCTATTTA [CACACA_site6542]	9.93 ± 0.085
TAGATTATTATACTAGTGCAAATTATTTAAGAAAAA	9.94 ± 0.2

Sequence	gcPBM binding intensity (ln)
AAAAAAAAAAAGTGCACACATAAAAATATGATCTAA [CACACA_site572]	10.8 ± 0.67
TAAATTTTTCTAAGTGCATGTTAATTTTTCAATTTA [TGCATGCA_site906]	9.87 ± 0.13
ATTTCCTTGAATGTTGCATGCTGTATTTTAATTAAA [TGCATGCA_site280]	10.06 ± 0.092
AAAAAAAGGAAATTTACACACACATATAATATACAT [CACACA_site3297]	9.965 ± 0.021
ATATTATTTATAAAAGTGCAAAAATCACTTCTTTTA [GTGCAC_site9656]	10.1 ± 0.2
TTTAAAAAGTTATGAAGTACATATATATATATATAT [XGTACX_site2188]	11.2 ± 0.87
TAATATCGTATATGAGTGCAATATTTTAGATTTTGA	9.91 ± 0.16
AATATATCAAAAATGATGACATAAATATATTAATTT [GTGCAC_negctrl_site530]	9.59 ± 0.23
TGCACGCACAGACACACACACAACTAAAAAATAATG [CACACA_site7250]	10.5 ± 0.42
AAAAAAAGGTAAAATTGTACATACGCACAAAAATAT [XGTACX_site2887]	11 ± 0.63
AACTTTAAACCCTGAACACACACAAATACACCCAAA [CACACA_site7971]	10.8 ± 0.69
TATATATATATATATATATATATATATGTATATATG [XGTACX_negctrl_site242]	9.93 ± 0.61
ATAATCCACAAGCACACACACACACCCATATATATA [CACACA_site1268]	10.2 ± 0.19
AAAATTATCGTTATATGTACGCATCTTAATACGTAT [XGTACX_site4063]	11.5 ± 1
GTCTATATATTTTAGGTGCAACGTAAATGTAAAAAT	10.4 ± 0.3
TAACTTTTTTTTTTTTTTTTTTAACTTTTATGTAAT [GTGCAC_negctrl_site156]	9.54 ± 0.11
CTTTTCTATTTTTTCGTGCACTATAAATATTTTAAT	10.5 ± 0.31
CACCAAAATATATGTACATATGATAAATGTGAATAT [GTGCAC_negctrl_site83]	11.3 ± 0.79
AAAAAAATTAATAATGTGCACTTTTTAGTATTTTTA [GTGCAC_site9744]	10.2 ± 0.21
AAATGTTAATTAAATGCATGTACAAAAGGAGCGAAT [TGCATGCA_site942]	11.1 ± 0.43
TTGTAGATATTTATATGTACGAATTTATAAATATAG [XGTACX_site3611]	11.1 ± 0.76
TTTTAAAAAAGAAAAAAAAAGGATCAGAGAAATATT [GTGCAC_negctrl_site79]	10.04 ± 0.014
